Data: PubChem BioAssay AID686978 (National Center for Advancing Translational Sciences (NCATS), 2013)
Values joined by “and” are separate entries in the source; they are usually repeats but may differ in a detail not shown here. Equal entries are not always repeated. Out of some 420,000 compounds screened, about 64,000 (15%) were called active. Inconclusive results, whose numbers are uncertain, are shown with a selection of clear calls. The call rests on the fitted dose curve; in most records, active means well fitted inhibition curve with a large enough effect; inconclusive means small, poorly fitted or top-dose-only effect; inactive means flat fitted curve, though single readings scatter. Where the call is inconclusive, the potency comes from a doubtful curve fit.

assay: qHTS for Inhibitors of human tyrosyl-DNA phosphodiesterase 1 (TDP1): qHTS in cells in absence of CPT; settings: DT40 Tdp1-/- hTDP1 cells, no CPT, ATP luminescence, 48 h; activity change, negative = growth inhibition: at 46.2 µM (top of the series); further: nearly all actives have a fitted effect of over 55% in size
Procedure, shortened: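 No-CPT arm: Tdp1-/-;hTDP1 DT40 cells (400/well) plus compounds, incubated ≥48 hr at 37 °C. Readout CellTiter-Glo luminescence.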
On the % scale 0 is the no-effect control and ±100 the full control effect; potency means the concentration at half of the fitted maximal effect; tags describe the fitted curve by direction and shape.

Compound | Potency | activity change, negative = growth inhibition
C#CCOCCOCCOCCNc1nc(N2CCN(C(=O)CCCCCCCCCCNC(=O)[C@@H](CCSC)n3cc(CCO)nn3)CC2)nc(N2CCN(C(=O)CCCCCCCCCCNC(=O)[C@H](CCSC)n3cc(CCO)nn3)CC2)n1 | inconclusive: 7.31 µM [inhibitor, partial curve] | –
COc1ccccc1CNC(=O)COc1ccccc1C(=O)c1cnn(-c2ccccc2)c1 | inconclusive: 29.1 µM [inhibitor, single point] | –
O=C(Cn1c(C(=O)OCCO)cc2ccccc21)c1ccccc1 | inconclusive: 23.1 µM [inhibitor, partial curve] | –
CNC(=O)C(=O)Nc1ccc2c(c1)N(S(=O)(=O)c1cccs1)CCC2 | inconclusive: 13 µM [inhibitor, partial curve] | –
COc1cc(CNc2ccc3[nH]c(=O)[nH]c3c2)cc(Br)c1OCc1ccc(F)cc1 | active: 2.91 µM and active: 14.6 µM | –
CCOC(=O)C1(Cc2ccccc2)CCN(Cc2cnn(C(C)C)c2)CC1 | – | inactive: -24%
COCCN1C(=O)c2ccccc2C(C(=O)N2CCN(c3ccccn3)CC2)C1c1ccc(F)cc1 (stereo unspecified) | inconclusive: 18.4 µM [inhibitor, single point] | –
C[C@@H]1CC[C@]2(C(=O)O[C@@H]3O[C@H](CO)[C@@H](O)[C@H](O)[C@H]3O)CC[C@]3(C)C(=CCC4[C@@]5(C)CC[C@H](O[C@@H]6OC[C@H](O)[C@H](O[C@@H]7O[C@H](CO)[C@@H](O)[C@H](O)[C@H]7O)[C@H]6O)C(C)(C)C5CC[C@]43C)C2[C@]1(C)O (stereo partly specified) | – | inactive: 4.72%
CCN(C(=O)CSc1nc(-c2cccs2)nc2ccccc12)C1CCS(=O)(=O)C1 (stereo unspecified) | inconclusive: 29.1 µM [inhibitor, single point] | –
CCOC(=O)CC1C(=O)NCCN1S(=O)(=O)c1ccc(Br)cc1 (stereo unspecified) | – | inactive: -20.4%
COc1ccc(Cn2ccc3nc(C)c(C(=O)N4CCN(c5cc(C)ccc5C)CC4)cc3c2=O)cc1 | active: 23.1 µM | –
COc1ccc(S(=O)(=O)c2ccc(O)cc2)cc1 | – | inactive: -0.389%
CCc1nnc(N/N=C/c2ccccc2F)n1N | – | inactive: -9.31%
Cc1ccc(S(=O)(=O)NCc2ccc(C(=O)N3CCN(Cc4ccccc4)CC3)cc2)cc1 | inconclusive: 16.4 µM [inhibitor, single point] | –
CCOc1ccc2cc(C(=O)c3ccccc3)c(=O)oc2c1 | – | inactive: -23%
Cc1cccc(C)c1NC(=O)C(c1ccnc2ccccc12)N1CCN(CCN(C)C)CC1 (stereo unspecified) | active: 5.17 µM | –
CN(C)S(=O)(=O)c1cccc(COC(=O)C2=COCCO2)c1 | – | inactive: -9.55%
Cc1cc(C)c(S(=O)(=O)N2CCCC(C(=O)N3CCCC3)C2)c(C)c1 (stereo unspecified) | inconclusive: 23.1 µM [inhibitor, single point] | –
O=S(=O)(c1ccc(-c2ccccn2)s1)N1CCC2(CC1)OCCO2 | inconclusive: 20.6 µM [inhibitor, single point] | –
O=C(CSc1nc(-c2ccccc2)nc2c1CCCC2)c1ccc(Cl)cc1 | – | inactive: 0.268%
Cc1ccc(S(=O)(=O)c2nc(S(=O)(=O)c3ccc(C)cc3)c(NC(C)C)s2)cc1 | inconclusive: 16.4 µM [inhibitor, single point] | –

Compound | Potency | activity change, negative = growth inhibition
COc1ccc(-c2ccc([C@H]3[C@H]4C=CC[C@@H](C)[C@@H]4C(=O)N3Cc3ccccc3)c(F)c2)cc1 | active: 20.6 µM | –
Cc1cccc(C(=O)Nc2ccc(C(=O)N/N=C/c3ccco3)cc2)c1 | – | inactive: -17.6%
COCCn1c(=O)c(-c2ccc(Cl)cc2)nc2cnc(OC)nc21 | – | inconclusive: -31.9% [inhibitor]
CC(Cc1ccccc1)N/C=C1/CC(=O)NC1=O (stereo unspecified) | – | inactive: -0.0795%
CCOc1ccc(CNC(=O)c2cnc3sc(N4CCCCCC4)nn3c2=O)cc1OC | – | inactive: -26.6%
CC(=O)Nc1cc(-c2ccc(N3CCN(C)CC3)cc2)cn2c(-c3cccc(C(=O)N(C)C)c3)cnc12 | inconclusive: 25.9 µM [inhibitor, single point] | –
Cc1ccc(C)c(NC(=O)Cn2c(=O)n(Cc3ccc4c(c3)OCO4)c(=O)c3ccc(C(=O)NC4CCCCC4)cc32)c1 | inconclusive: 2.06 µM [inhibitor, partial curve, poor fit] | –
CCn1c(=O)c2ccccc2n(CC(=O)NCCC2=CCCCC2)c1=O | – | inactive: -17.9%
CCc1cccc(C)c1NC(=O)C(CC)n1ncn2c(cc3cc(C)ccc32)c1=O (stereo unspecified) | inconclusive: 20.6 µM [inhibitor, partial curve] | –
Cn1cc(C(F)(F)F)nc1-c1ccc(OCC(O)CNCCOc2ccc(O)c(C(N)=O)c2)cc1 (stereo unspecified) | inconclusive: 25.9 µM [inhibitor, single point] and inconclusive: 23.1 µM [inhibitor, single point] | –
COCc1c(C(=O)N/N=C\c2cccs2)nnn1-c1nonc1N | – | inactive: -18.4%
COc1ccccc1N1CC(O)=C(c2nc3ccccc3c(=O)[nH]2)C1=N | inconclusive: 18.4 µM [inhibitor, single point] | –
O=c1[nH]c(C2CCN(S(=O)(=O)c3ccc([N+](=O)[O-])cc3)CC2)nc2c1nnn2Cc1ccccc1 | inconclusive: 29.1 µM [inhibitor, single point] | –
CC12CCC(C(=O)Nc3cc(Cl)ccc3Cl)(C(Br)C1=O)C2(C)C (stereo unspecified) | – | inconclusive: -30.7% [inhibitor]
CCCN(C(=O)c1sc2nc3n(c(=O)c2c1C)CCCC3)c1ccccc1C | inconclusive: 29.1 µM [inhibitor, single point] | –
Cc1ccc2c(c1)CC(C)N2S(=O)(=O)c1nnc(NC(=O)C(C)C)s1 (stereo unspecified) | – | inconclusive: -31.6% [inhibitor]
CCOC(=O)N1CCN(Cc2nc3c(c(=O)n(C)c(=O)n3C)n2Cc2ccccc2C)CC1 | – | inactive: 0.666%
COC(=O)C1(C(=O)OC)c2ccccc2N(S(=O)(=O)c2ccc(C)cc2)C1CC(C)=O (stereo unspecified) | inconclusive: 23.1 µM [inhibitor, single point] | –
Cc1cc(NC(=O)CCC(=O)N(c2ccc(F)cc2)C(C(=O)NC2CCCC2)c2ccc(C)o2)no1 (stereo unspecified) | inconclusive: 25.9 µM [inhibitor, single point] | –
O=C(N/N=C/c1cccs1)c1ccc2ncccc2c1 | – | inactive: -1.53%
